# In the supplement of paper PMC7826260:
# This is one part of the list. Each Rep nickase domain was tested in vitro on the same pool of single strands (1 h at 37 °C, 3 µM enzyme); the outer parts of the 90-letter strands are left off. A value is the log2 ratio of uncut reads to the pool without enzyme; the lower, the more was cut; hits are not called. Because reads are shares of a total, they shift together; uncut strands gain when others are lost, and binding without cutting may add a little.
# What was measured:
# Test in all cases: uncleaved DNA left, log2 of reads against the no-enzyme library (log2 ratio); higher = less cleavage (more negative = more Rep cleavage of the k-mer); sequences stand for … in CTCGTCCG…ACCGGAGA
# [1] = tested on: T1, Rep nickase domain of Muscovy duck circovirus
# T1 sequence (residues 1-111 of Rep, tag left off): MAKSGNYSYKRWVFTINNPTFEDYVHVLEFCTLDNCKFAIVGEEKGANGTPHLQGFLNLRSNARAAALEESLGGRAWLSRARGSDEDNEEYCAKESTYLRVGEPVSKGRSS
# Protocol: (§1)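 A pool of 90-nt single-stranded DNAs with seven random bases just before the constant AC of the nick site (name = the seven bases) was cut by 3 µM recombinant His6-SUMO-tagged Rep nickase domain (300 nM DNA, 50 mM HEPES pH 8.0, 50 mM NaCl, 1 mM MnCl2, 1 h, 37 °C, three replicates). Uncut DNA was amplified and sequenced.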
# [2] = tested on: T2, Rep nickase domain of banana bunchy top virus
# T2 sequence (residues 1-94 of Rep, tag left off): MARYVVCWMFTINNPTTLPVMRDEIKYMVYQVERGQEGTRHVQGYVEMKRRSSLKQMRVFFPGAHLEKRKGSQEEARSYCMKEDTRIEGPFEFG
# Protocol: as §1
# [3] = tested on: T3, Rep nickase domain of cabbage leaf curl virus
# T3 sequence (residues 1-116 of Rep, tag left off): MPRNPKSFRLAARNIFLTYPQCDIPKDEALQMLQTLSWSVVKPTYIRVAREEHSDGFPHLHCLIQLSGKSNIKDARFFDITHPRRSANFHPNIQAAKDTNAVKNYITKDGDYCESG
# Protocol: as §1
# [4] = tested on: T4, Rep nickase domain of chickpea chlorotic dwarf virus
# T4 sequence (residues 1-124 of Rep, tag left off): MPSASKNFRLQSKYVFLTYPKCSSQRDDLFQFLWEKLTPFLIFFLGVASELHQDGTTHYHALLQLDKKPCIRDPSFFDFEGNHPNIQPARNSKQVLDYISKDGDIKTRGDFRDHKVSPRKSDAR
# Protocol: as §1
# [5] = tested on: T5, Rep nickase domain of faba bean necrotic yellows virus
# T5 sequence (residues 1-98 of Rep, tag left off): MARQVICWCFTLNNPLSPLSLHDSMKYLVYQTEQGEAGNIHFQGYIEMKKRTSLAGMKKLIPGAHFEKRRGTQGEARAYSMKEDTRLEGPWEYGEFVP
# Protocol: as §1
# [6] = tested on: T6, Rep nickase domain of maize striate mosaic virus
# T6 sequence (residues 1-117 of Rep, tag left off): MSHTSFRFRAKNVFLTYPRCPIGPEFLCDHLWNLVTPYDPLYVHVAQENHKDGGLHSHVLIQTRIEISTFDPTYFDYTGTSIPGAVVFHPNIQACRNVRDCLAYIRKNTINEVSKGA
# Protocol: as §1
# [7] = tested on: T7, Rep nickase domain of porcine circovirus 2
# T7 sequence (residues 2-116 of Rep, tag left off): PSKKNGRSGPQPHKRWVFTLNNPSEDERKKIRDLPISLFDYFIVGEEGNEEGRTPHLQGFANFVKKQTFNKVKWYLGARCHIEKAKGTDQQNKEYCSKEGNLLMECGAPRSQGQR
# Protocol: as §1
# [8] = tested on: T8, Rep nickase domain of tomato yellow leaf curl virus
# T8 sequence (residues 1-136 of Rep, tag left off): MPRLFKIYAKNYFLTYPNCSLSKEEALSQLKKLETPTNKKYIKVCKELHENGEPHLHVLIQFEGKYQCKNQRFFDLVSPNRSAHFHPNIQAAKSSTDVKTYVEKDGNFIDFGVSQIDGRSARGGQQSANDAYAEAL
# Protocol: as §1
# [9] = tested on: T9, Rep nickase domain of wheat dwarf virus
# T9 sequence (residues 1-137 of Rep, tag left off): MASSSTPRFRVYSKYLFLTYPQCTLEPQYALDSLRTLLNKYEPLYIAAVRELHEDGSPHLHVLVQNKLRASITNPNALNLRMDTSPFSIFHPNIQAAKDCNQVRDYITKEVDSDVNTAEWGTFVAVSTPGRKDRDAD
# Protocol: as §1
Sequence,uncleaved DNA left (log2) [1],uncleaved DNA left (log2) [2],uncleaved DNA left (log2) [3],uncleaved DNA left (log2) [4],uncleaved DNA left (log2) [5],uncleaved DNA left (log2) [6],uncleaved DNA left (log2) [7],uncleaved DNA left (log2) [8],uncleaved DNA left (log2) [9]
TTACAGT,-0.0281,-0.0698,-0.378,-2.19,-0.014,-0.843,-0.114,0.022,-0.08
CACGCCC,-0.136,-0.178,-0.302,-0.343,-0.0663,-0.591,-0.179,-0.143,-0.138
CTACTAA,-0.0735,0.0292,-0.321,-1.69,-0.0142,-0.752,-0.0456,-0.0529,-0.0303
CACCCTT,-0.0231,-0.168,-0.611,-2.44,-0.207,-0.0262,-1.11,-0.0583,-0.259
AAGCTAC,0.0721,0.0716,0.11,-0.762,0.162,0.604,0.136,0.0631,0.184
TGATATT,-3.84,-1.05,-2.23,-2.87,-0.363,-1.14,-4.02,-0.068,-2.72
TAAGTAA,0.127,-0.00575,-0.187,-1.76,0.0387,-0.246,0.0824,0.0457,-0.0156
ACATATA,0.1,0.0686,-0.195,-1.39,0.111,-0.744,0.101,0.119,0.0792
GAATGGT,-0.738,-0.0628,-2.81,-1.99,-0.0717,-1.44,-3.01,0.0167,-2.21
TGTGGTT,0.0575,-0.0251,0.245,-0.314,-0.0197,0.863,-0.168,-0.0175,-0.126
GCAACTC,0.0606,0.0741,0.0742,0.0291,-0.0237,-0.135,0.0814,0.0413,0.0603
GTACTCT,-0.0723,-0.018,0.29,0.558,-0.0779,1.7,-0.0128,0.0246,-0.0903
AGGAATT,-0.0162,0.0707,0.397,0.377,0.197,1.5,-0.494,-0.0323,0.186
ATACCGC,-0.029,-0.0693,-0.271,-0.541,0.0799,-0.82,0.0518,0.0149,0.0326
TTATAGA,0.215,0.0674,0.0973,-0.0864,0.0791,-0.707,0.0962,0.113,0.0799
GACACCG,-0.0618,-0.0419,-0.714,-0.586,-0.164,-0.861,0.0318,-0.119,-0.227
TCATGGC,-0.0978,-0.048,-0.674,-0.776,-0.00508,-1.09,0.189,0.109,-0.145
CTGCTAT,0.174,0.00973,0.0933,-0.587,0.225,-0.559,0.134,0.263,0.08
TGTTAGC,0.00636,-0.0588,-0.0352,-0.119,0.0363,-0.74,-0.0236,-0.061,-0.0557
TAAGAGA,0.0905,-0.0749,0.201,-0.216,0.0276,-0.17,0.134,-0.114,0.05

Sequence,uncleaved DNA left (log2) [1],uncleaved DNA left (log2) [2],uncleaved DNA left (log2) [3],uncleaved DNA left (log2) [4],uncleaved DNA left (log2) [5],uncleaved DNA left (log2) [6],uncleaved DNA left (log2) [7],uncleaved DNA left (log2) [8],uncleaved DNA left (log2) [9]
TAACCAA,0.0325,0.184,-0.474,-2.27,0.0743,-0.411,-0.64,0.114,0.0149
AAATTCC,-0.167,-0.0259,-2.24,-2.1,0.00974,-0.661,-2.6,-0.00304,-0.398
AATGAAA,0.00932,-0.0692,0.0164,-0.0469,-0.00328,-0.198,0.00614,-0.036,0.105
TACGGGC,-0.0656,-0.00912,0.16,0.157,0.052,0.0439,0.167,-0.0027,-0.0883
TGCCAAA,-0.0237,-0.00758,0.153,0.111,-0.111,-0.386,-0.027,0.0446,0.0255
ACCAAAC,0.0162,0.0766,-0.13,-0.382,0.148,-0.862,0.0313,-0.114,0.0916
CCTAGAA,0.0179,0.00903,0.114,-0.244,0.0575,-0.55,0.0817,-0.104,0.0651
TGTAAGT,0.151,0.0686,0.153,0.0269,-0.1,-0.521,-0.103,0.106,0.0665
CTGACTT,-0.0345,-0.12,-0.0341,-0.458,-0.064,0.261,-0.019,0.0427,0.055
GTCTCAG,0.044,0.00888,0.24,0.698,-0.0115,1.37,0.0785,0.00545,-0.0399
GTTCAGC,0.0683,0.125,0.261,0.699,0.0752,0.747,0.0907,0.032,0.0565
ATGCGTA,0.0209,-0.0646,-0.687,-0.833,-0.0247,-1.21,-0.0082,0.0381,-0.103
CATGCAC,-0.00684,-0.143,-0.691,-0.708,0.0426,-1.18,0.0553,-0.0558,-0.111
CACCTCG,-0.0261,0.0738,-0.832,-0.0479,0.00109,-0.822,-0.0216,0.0372,-0.161
AGTATCC,0.152,0.0931,0.325,0.556,0.117,0.272,0.00264,0.202,0.185
TCACATG,-0.0576,0.0838,-0.486,-0.658,-0.0897,-1.01,0.0768,-0.0715,-0.135
CGAATTT,-0.0193,-0.182,-0.0874,-1.97,-0.0633,-0.464,-0.303,-0.031,-0.0323
CCCTTGG,-0.0077,-0.0453,-0.4,-0.486,0.0513,-1.26,-0.0243,-0.00175,-0.158
GAGCCGT,0.00552,-0.000525,-0.0973,-0.0431,0.0328,-0.155,-0.0525,0.0851,0.143
CATGCGT,-0.0409,-0.0525,-0.833,0.00493,0.0376,-0.859,-0.0237,0.0107,-0.141
